Results: publication PMC6441142
These are yes or no findings as the source states them, for the method shown. For some assays here: Binding seen in cells or lysates may run through a third protein. Some results given as binding are weak or reduced against the parent protein; the word gives no strength. One block for each molecule: values may come before it.

The chains behind the UniProt entries cited, without tags or fusion partners. Residues count along the entry.
UniProt Q9JHS3: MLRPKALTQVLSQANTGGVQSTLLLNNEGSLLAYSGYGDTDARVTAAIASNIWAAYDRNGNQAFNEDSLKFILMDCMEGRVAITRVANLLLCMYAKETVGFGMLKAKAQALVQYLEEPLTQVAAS
UniProt P02545, residues 1-646: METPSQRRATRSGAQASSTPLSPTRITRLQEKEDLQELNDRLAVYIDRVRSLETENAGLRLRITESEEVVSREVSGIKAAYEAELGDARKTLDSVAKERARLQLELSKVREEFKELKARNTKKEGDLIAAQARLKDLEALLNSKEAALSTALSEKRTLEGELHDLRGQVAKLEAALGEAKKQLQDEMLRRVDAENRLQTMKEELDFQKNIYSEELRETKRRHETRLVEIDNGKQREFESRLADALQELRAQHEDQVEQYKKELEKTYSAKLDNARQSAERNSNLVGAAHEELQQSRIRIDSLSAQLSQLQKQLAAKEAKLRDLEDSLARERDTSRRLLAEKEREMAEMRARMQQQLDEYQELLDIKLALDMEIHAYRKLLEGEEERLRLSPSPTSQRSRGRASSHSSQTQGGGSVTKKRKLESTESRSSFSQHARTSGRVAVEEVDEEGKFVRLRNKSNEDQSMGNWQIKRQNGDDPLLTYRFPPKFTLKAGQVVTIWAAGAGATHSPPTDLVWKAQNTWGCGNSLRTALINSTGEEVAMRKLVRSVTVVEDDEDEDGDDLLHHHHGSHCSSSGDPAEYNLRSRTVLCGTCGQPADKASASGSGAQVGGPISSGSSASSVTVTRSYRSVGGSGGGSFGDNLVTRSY

Experiments:
[1] = target: LexA-VP16-CUB-PRA1 (mouse) (UniProt Q9Z0S9); test: two-hybrid; split-ubiquitin yeast two-hybrid screen (DUALmembrane) in S. cerevisiae NMY51; bait LexA-VP16-CUB-PRA1 against a normalized adult mouse brain NUBG-X cDNA library; growth on SD-TRP-LEU-HIS-ADE at 30 °C; hits re-transformed into fresh bait strain and plated on dropout media to confirm
PRA1-VN173 (mouse) = PRA1-VN173 (mouse) (UniProt Q9Z0S9); test: split reporter; BiFC with Venus halves VN173 and VC155 in co-transfected COS-7 cells; confocal images 48 h after transfection

binding [1]: binds
Molecule: Lamtor2 (from UniProt Q9JHS3 1-125)

binding (PRA1-VN173 (mouse)): binds
Molecule: LAMTOR2-VC155 (from UniProt Q9JHS3 1-125)

binding (PRA1-VN173 (mouse)): no binding
Molecule: Lamin-A-VC155 (from UniProt P02545 1-646)

binding [1]: binds
B1: Copz1 (protein, UniProt P61924 1-177)
chain: MEALILEPSLYTVKAILILDNDGDRLFAKYYDDTYPSVKEQKAFEKNIFNKTHRTDSEIALLEGLTVVYKSSIDLYFYVIGSSYENELMLMAVLNCLFDSLSQMLRKNVEKRALLENMEGLFLAVDEIVDGGVILESDPQQVVHRVALRGEDVPLTEQTVSQVLQSAKEQIKWSLLR

binding (PRA1-VN173 (mouse)): binds
B2: ζ1-COP-VC155 (protein, UniProt P61924 1-177)
chain: B1 chain
